Laboratory results as given in paper PMC8113725, “Structure–activity relationship of ipglycermide binding to phosphoglycerate mutases” (The Journal of Biological Chemistry, 2021).

Legend:
C. elegans iPGM = C. elegans iPGM (Caenorhabditis elegans, UniProt G5EFZ1); experiment: PGM enzyme assay (enolase–pyruvate kinase coupled, Kinase-Glo Plus end point) and IC50 determination; assay type: biochemical; conditions: IC50 (M), Supplemental Figure 5, 1st row pair; enzyme not given, inferred from match with Table 4a
B. malayi iPGM = B. malayi iPGM (Brugia malayi, UniProt Q4VWF8); experiment: biochemical; conditions: IC50 (M), Supplemental Figure 5, 2nd row pair; enzyme not given, inferred from match with Table 4a
Chain of UniProt Q4VWF8 (Q4VWF8 whole entry): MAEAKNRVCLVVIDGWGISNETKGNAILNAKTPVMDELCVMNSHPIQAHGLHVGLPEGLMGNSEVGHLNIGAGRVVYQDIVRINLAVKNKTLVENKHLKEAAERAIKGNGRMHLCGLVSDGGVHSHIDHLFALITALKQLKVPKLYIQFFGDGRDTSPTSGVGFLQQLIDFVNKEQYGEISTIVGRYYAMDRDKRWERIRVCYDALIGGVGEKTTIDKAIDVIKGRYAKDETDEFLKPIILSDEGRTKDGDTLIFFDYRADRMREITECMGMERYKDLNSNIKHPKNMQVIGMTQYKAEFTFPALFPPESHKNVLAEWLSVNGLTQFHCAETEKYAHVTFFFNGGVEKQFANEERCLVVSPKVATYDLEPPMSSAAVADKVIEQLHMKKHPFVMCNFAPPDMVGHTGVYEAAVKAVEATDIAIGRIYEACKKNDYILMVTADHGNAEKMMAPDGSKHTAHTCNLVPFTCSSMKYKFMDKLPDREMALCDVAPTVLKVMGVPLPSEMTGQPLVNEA

O. volvulus iPGM = O. volvulus iPGM (Onchocerca volvulus, UniProt I6LDA6); experiment: biochemical; conditions: IC50 (M), Supplemental Figure 5, 3rd row pair; enzyme not given, inferred from match with Table 4a
Chain of UniProt I6LDA6 (I6LDA6 whole entry): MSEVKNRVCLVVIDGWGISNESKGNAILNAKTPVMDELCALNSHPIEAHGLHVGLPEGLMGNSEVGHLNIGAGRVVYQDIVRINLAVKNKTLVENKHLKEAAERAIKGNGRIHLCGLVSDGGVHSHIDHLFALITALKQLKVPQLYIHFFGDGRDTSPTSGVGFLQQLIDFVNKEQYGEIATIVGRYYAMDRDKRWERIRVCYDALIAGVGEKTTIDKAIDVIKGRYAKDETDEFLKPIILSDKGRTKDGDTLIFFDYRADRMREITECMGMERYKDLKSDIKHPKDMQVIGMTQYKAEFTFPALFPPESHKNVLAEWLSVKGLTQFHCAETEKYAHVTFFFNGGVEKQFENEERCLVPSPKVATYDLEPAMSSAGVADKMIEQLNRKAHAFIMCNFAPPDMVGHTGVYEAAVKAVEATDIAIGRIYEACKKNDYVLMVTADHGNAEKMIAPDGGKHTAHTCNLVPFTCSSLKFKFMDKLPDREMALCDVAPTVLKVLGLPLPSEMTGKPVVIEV

E. coli iPGM = E. coli iPGM (Escherichia coli, UniProt P37689); experiment: biochemical; conditions: IC50 (M), Supplemental Figure 5, 5th row pair; enzyme not given, inferred from match with Table 4a
Chain of UniProt P37689 (P37689 whole entry): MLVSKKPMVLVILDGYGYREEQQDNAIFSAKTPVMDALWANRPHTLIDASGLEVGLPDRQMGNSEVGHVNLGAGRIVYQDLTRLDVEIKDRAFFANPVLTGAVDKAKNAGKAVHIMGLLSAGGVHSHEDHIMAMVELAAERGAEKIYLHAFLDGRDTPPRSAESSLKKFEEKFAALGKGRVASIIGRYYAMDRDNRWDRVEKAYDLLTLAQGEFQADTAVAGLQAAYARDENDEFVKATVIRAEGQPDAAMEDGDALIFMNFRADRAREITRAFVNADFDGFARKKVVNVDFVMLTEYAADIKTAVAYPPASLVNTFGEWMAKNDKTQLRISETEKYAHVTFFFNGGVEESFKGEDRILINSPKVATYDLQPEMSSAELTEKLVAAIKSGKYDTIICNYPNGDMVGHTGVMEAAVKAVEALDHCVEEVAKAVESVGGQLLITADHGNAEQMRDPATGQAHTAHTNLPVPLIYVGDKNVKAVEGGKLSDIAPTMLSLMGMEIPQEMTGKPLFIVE

Row | Structure (SMILES) | IC50 (C. elegans iPGM) | IC50 (B. malayi iPGM) | IC50 (O. volvulus iPGM) | IC50 (E. coli iPGM)
1 | CC[C@@H]1NC(=O)[C@@H](Cc2ccc(O)cc2)NC(=O)CSC[C@@H](C(=O)N[C@@H](Cc2ccc(O)cc2)C(=O)N[C@@H](CC(C)C)C(=O)N[C@@H](Cc2ccc(O)cc2)C(=O)NCC(=O)N[C@H](C(=O)N[C@@H](CS)C(N)=O)[C@@H](C)O)NC(=O)[C@H](Cc2ccc(O)cc2)NC(=O)[C@H](CC(=O)O)NC(=O)CNC(=O)[C@@H]2CCCN2C(=O)[C@H](Cc2ccc(O)cc2)NC1=O [Ce-2 D2Abu] ({CH2CO}-[dY][Abu]YPGDYCYLYGTC-NH2; thioether N-8) | 1.15e-09 M | 2.2e-09 M | 2.38e-09 M | 5.83e-08 M
2 | CC(C)C[C@H](NC(=O)[C@H](Cc1ccc(O)cc1)NC(=O)[C@@H]1CSCC(=O)N[C@H](Cc2ccc(O)cc2)C(=O)N[C@@H](CC(N)=O)C(=O)N[C@@H](Cc2ccc(O)cc2)C(=O)N2CCC[C@H]2C(=O)NCC(=O)N[C@@H](CC(=O)O)C(=O)N[C@@H](Cc2ccc(O)cc2)C(=O)N1)C(=O)N[C@@H](Cc1ccc(O)cc1)C(=O)NCC(=O)N[C@H](C(=O)N[C@@H](CS)C(N)=O)[C@@H](C)O [Ce-2 D2N] ({CH2CO}-[dY]NYPGDYCYLYGTC-NH2; thioether N-8) | 1.86e-09 M | 2.64e-09 M | 3.03e-09 M | 1.97e-07 M
3 | CCC[C@@H]1NC(=O)[C@@H](Cc2ccc(O)cc2)NC(=O)CSC[C@@H](C(=O)N[C@@H](Cc2ccc(O)cc2)C(=O)N[C@@H](CC(C)C)C(=O)N[C@@H](Cc2ccc(O)cc2)C(=O)NCC(=O)N[C@H](C(=O)N[C@@H](CS)C(N)=O)[C@@H](C)O)NC(=O)[C@H](Cc2ccc(O)cc2)NC(=O)[C@H](CC(=O)O)NC(=O)CNC(=O)[C@@H]2CCCN2C(=O)[C@H](Cc2ccc(O)cc2)NC1=O [Ce-2 D2Nva] ({CH2CO}-[dY][Nva]YPGDYCYLYGTC-NH2; thioether N-8) | 1.22e-09 M | 1.96e-09 M | 2.28e-09 M | 3.69e-07 M
4 | CC(C)C[C@H](NC(=O)[C@H](Cc1ccc(O)cc1)NC(=O)[C@@H]1CSCC(=O)N[C@H](Cc2ccc(O)cc2)C(=O)N[C@@H](CC(=O)O)C(=O)N[C@@H](Cc2ccc(O)cc2)C(=O)N2CCC[C@H]2C(=O)NCC(=O)N[C@@H](CC(=O)O)C(=O)N[C@@H](Cc2ccc(O)cc2)C(=O)N1)C(=O)N[C@@H](Cc1ccc(O)cc1)C(=O)NCC(=O)NCC(=O)N[C@@H](CS)C(N)=O [Ce-2 T13G] | 1.05e-09 M | 5.13e-10 M | 1.2e-09 M | 1.1e-07 M
5 | CC(C)C[C@H](NC(=O)[C@H](Cc1ccc(O)cc1)NC(=O)[C@@H]1CSCC(=O)N[C@H](Cc2ccc(O)cc2)C(=O)N[C@@H](CC(=O)O)C(=O)N[C@@H](Cc2ccc(O)cc2)C(=O)N2CCC[C@H]2C(=O)NCC(=O)N[C@@H](CC(=O)O)C(=O)N[C@@H](Cc2ccc(O)cc2)C(=O)N1)C(=O)N[C@@H](Cc1ccc(O)cc1)C(=O)NCC(=O)N[C@@H](Cc1c[nH]cn1)C(=O)N[C@@H](CS)C(N)=O [Ce-2 T13H] | 2.07e-09 M | 8.63e-09 M | 3.61e-09 M | 4.78e-06 M
6 | CC(C)C[C@H](NC(=O)[C@H](Cc1ccc(O)cc1)NC(=O)[C@@H]1CSCC(=O)N[C@H](Cc2ccc(O)cc2)C(=O)N[C@@H](CC(=O)O)C(=O)N[C@@H](Cc2ccc(O)cc2)C(=O)N2CCC[C@H]2C(=O)NCC(=O)N[C@@H](CC(=O)O)C(=O)N[C@@H](Cc2ccc(O)cc2)C(=O)N1)C(=O)N[C@@H](Cc1ccc(O)cc1)C(=O)NCC(=O)N[C@@H](CO)C(=O)N[C@@H](CS)C(N)=O [Ce-2 Thr13Ser] | 1.43e-09 M | 5.43e-09 M | 2.47e-09 M | 9.93e-09 M
7 | CC(C)C[C@H](NC(=O)[C@H](Cc1ccccc1)NC(=O)[C@@H]1CSCC(=O)N[C@H](Cc2ccc(O)cc2)C(=O)N[C@@H](CC(=O)O)C(=O)N[C@@H](Cc2ccc(O)cc2)C(=O)N2CCC[C@H]2C(=O)NCC(=O)N[C@@H](CC(=O)O)C(=O)N[C@@H](Cc2ccccc2)C(=O)N1)C(=O)N[C@@H](Cc1ccc(O)cc1)C(=O)NCC(=O)N[C@H](C(=O)N[C@@H](CS)C(N)=O)[C@@H](C)O [Ce-2 Y7F, Y9F] ({CH2CO}-[dY]DYPGDFCFLYGTC-NH2; thioether N-8) | 2.37e-09 M | 2.41e-08 M | 2.35e-08 M | 3.58e-06 M
8 | CC(C)C[C@H](NC(=O)[C@H](Cc1ccc(O)cc1)NC(=O)[C@@H]1CSCC(=O)N[C@H](Cc2ccc(O)cc2)C(=O)N[C@@H](CC(=O)O)C(=O)N[C@@H](Cc2ccc(O)cc2)C(=O)N2CCC[C@H]2C(=O)NCC(=O)N[C@@H](CC(=O)O)C(=O)N[C@@H](Cc2ccccc2)C(=O)N1)C(=O)N[C@@H](Cc1ccc(O)cc1)C(=O)NCC(=O)N[C@H](C(=O)N[C@@H](CS)C(N)=O)[C@@H](C)O [Ce-2 Y7F] | 2.34e-09 M | 1.23e-09 M | 2.71e-09 M | 6.38e-07 M
9 | CC(C)C[C@H](NC(=O)[C@H](Cc1ccccc1)NC(=O)[C@@H]1CSCC(=O)N[C@H](Cc2ccc(O)cc2)C(=O)N[C@@H](CC(=O)O)C(=O)N[C@@H](Cc2ccc(O)cc2)C(=O)N2CCC[C@H]2C(=O)NCC(=O)N[C@@H](CC(=O)O)C(=O)N[C@@H](Cc2ccc(O)cc2)C(=O)N1)C(=O)N[C@@H](Cc1ccc(O)cc1)C(=O)NCC(=O)N[C@H](C(=O)N[C@@H](CS)C(N)=O)[C@@H](C)O [Ce-2 Y9F] ({CH2CO}-[dY]DYPGDYCFLYGTC-NH2; thioether N-8) | 1.31e-09 M | 3.53e-09 M | 3.57e-09 M | 5.14e-07 M

Bridge positions count the residues as written; N and C are the ends. Square brackets hold non-standard residues; d marks the D form. Peptide text beside a SMILES is read from it. Nva = CCC[C@H](N)C(=O)O; Abu = CC[C@H](N)C(=O)O
